B1: IL-7/TF/IL-15:TGFβ Receptor II/IL-15RαSu fusion protein complex (other)
chain 1: DCDIEGKDGKQYESVLMVSIDQLLDSMKEIGSNCLNNEFNFFKRHICDANKEGMFLFRAARKLRQFLKMNSTGDFDLHLLKVSEGTTILLNCTGQVKGRKPAALGEAQPTKSLEENKSLKEQKKLNDLCFLKRLLQEIKTCWNKILMGTKEHSGTTNTVAAYNLTWKSTNFKTILEWEPKPVNQVYTVQISTKSGDWKSKCFYTTDTECDLTDEIVKDVKQTYLARVFSYPAGNVESTGSAGEPLYENSPEFTPYLETNLGQPTIQSFEQVGTKVNVTVEDERTLVRRNNTFLSLRDVFGKDLIYTLYYWKSSSSGKKTAKTNTNEFLIDVDKGENYCFSVQAVIPSRTVNRKSTDSPVECMGQEKGEFRE[about 120 residues not spelt out]
chain 2: IPPHVQKSVNNDMIVTDNNGAVKFPQLCKFCDVRFSTCDNQKSCMSNCSITSICEKPQEVCVAVWRKNDENITLETVCHDPKLPYHDFILEDAASPKCIMKEKKKPGETFFMCSCSSDECNDNIIFSEEYNTSNPDGGGGSGGGGSGGGGSIPPHVQKSVNNDMIVTDNNGAVKFPQLCKFCDVRFSTCDNQKSCMSNCSITSICEKPQEVCVAVWRKNDENITLETVCHDPKLPYHDFILEDAASPKCIMKEKKKPGETFFMCSCSSDECNDNIIFSEEYNTSNPDITCPPPMSVEHADIWVKSYSLYSRERYICNSGFKRKAGTSSLTECVLNKATNVAHWTTPSLKCIR
B2: TGFR/TF/IL-15:CD16scFv/IL-15RαSu/IL-21 protein complex (other)
chain 1: IPPHVQKSVNNDMIVTDNNGAVKFPQLCKFCDVRFSTCDNQKSCMSNCSITSICEKPQEVCVAVWRKNDENITLETVCHDPKLPYHDFILEDAASPKCIMKEKKKPGETFFMCSCSSDECNDNIIFSEEYNTSNPDGGGGSGGGGSGGGGSIPPHVQKSVNNDMIVTDNNGAVKFPQLCKFCDVRFSTCDNQKSCMSNCSITSICEKPQEVCVAVWRKNDENITLETVCHDPKLPYHDFILEDAASPKCIMKEKKKPGETFFMCSCSSDECNDNIIFSEEYNTSNPDSGTTNTVAAYNLTWKSTNFKTILEWEPKPVNQVYTVQISTKSGDWKSKCFYTTDTECDLTDEIVKDVKQTYLARVFSYPAGNVESTGSAGEPLYENSPEFTPYLETNLGQPTIQSFEQVGTKVNVTVEDERTLVRRNNTFLSLRDVFGKDLIYTLYYWKSSSSGKKTAKTNTNEFLIDVDKGENYCFSVQAVIPSRTVNRKSTDSPVECMGQEKGEFRE[about 120 residues not spelt out]
chain 2: not shown
B3: TGFβR/TF/IL-15:TGFβR/IL-15RαSu protein complex (other)
chain 1: IPPHVQKSVNNDMIVTDNNGAVKFPQLCKFCDVRFSTCDNQKSCMSNCSITSICEKPQEVCVAVWRKNDENITLETVCHDPKLPYHDFILEDAASPKCIMKEKKKPGETFFMCSCSSDECNDNIIFSEEYNTSNPDGGGGSGGGGSGGGGSIPPHVQKSVNNDMIVTDNNGAVKFPQLCKFCDVRFSTCDNQKSCMSNCSITSICEKPQEVCVAVWRKNDENITLETVCHDPKLPYHDFILEDAASPKCIMKEKKKPGETFFMCSCSSDECNDNIIFSEEYNTSNPDSGTTNTVAAYNLTWKSTNFKTILEWEPKPVNQVYTVQISTKSGDWKSKCFYTTDTECDLTDEIVKDVKQTYLARVFSYPAGNVESTGSAGEPLYENSPEFTPYLETNLGQPTIQSFEQVGTKVNVTVEDERTLVRRNNTFLSLRDVFGKDLIYTLYYWKSSSSGKKTAKTNTNEFLIDVDKGENYCFSVQAVIPSRTVNRKSTDSPVECMGQEKGEFRE[about 120 residues not spelt out]
chain 2: IPPHVQKSVNNDMIVTDNNGAVKFPQLCKFCDVRFSTCDNQKSCMSNCSITSICEKPQEVCVAVWRKNDENITLETVCHDPKLPYHDFILEDAASPKCIMKEKKKPGETFFMCSCSSDECNDNIIFSEEYNTSNPDGGGGSGGGGSGGGGSIPPHVQKSVNNDMIVTDNNGAVKFPQLCKFCDVRFSTCDNQKSCMSNCSITSICEKPQEVCVAVWRKNDENITLETVCHDPKLPYHDFILEDAASPKCIMKEKKKPGETFFMCSCSSDECNDNIIFSEEYNTSNPDITCPPPMSVEHADIWVKSYSLYSRERYICNSGFKRKAGTSSLTECVLNKATNVAHWTTPSLKCIR

biological target: TGFβ1 (R&D systems) (UniProt P01137 part only); assay: cell-based or functional assay
Chain of UniProt P01137 (P01137 279-390 limits assumed): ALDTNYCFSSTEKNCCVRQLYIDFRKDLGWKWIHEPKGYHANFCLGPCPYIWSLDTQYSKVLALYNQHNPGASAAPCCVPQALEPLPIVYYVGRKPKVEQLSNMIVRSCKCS

**Q.** Which “IC50, inhibition of TGFβ1 activity in HEK-Blue TGFβ cells” value (from here on “IC50, inhibition of TGFβ1 activity”) does the source give for B1 here?
**A.** 1.14 nM

**Q.** How did the “IC50, inhibition of TGFβ1 activity” value turn out when B2 was run?
**A.** 9.13 nM

**Q.** For B3, which “IC50, inhibition of TGFβ1 activity” value is on record?
**A.** 0.217 nM

From US20240124543A1 (published 2024)
